Source: the RNAGym collection of RNA variant scans (doi:10.1093/nar/gkz1192)
The source gives no read counts; variants with many changes may rest on few reads.

B1: CPEB3 Ribozyme (parent)
chain: UAACAGGGGGCCACAGCAGAAGCGUUCACGUCGCAGCCCCUGUCAGAUUCUGGUGAAUCUGCGAAUUCUGCUGUAUAUCUC

Variants of: B1
Experiment: self-cleavage, relative activity (ratio to wild type); higher = more cleavage; in vitro, sequencing
Summary of the method: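 After error-prone PCR and barcoding, CPEB3 ribozyme mutant libraries were transcribed with T7 RNA polymerase at 37°C for 5 hours, then given 15 min with DNase I before an EDTA stop, and they cleaved during both steps. Reverse transcription with template switching preceded Illumina sequencing. Relative activity divides a variant's cleaved/total read fraction by the unmutated ribozyme's. At least 5 reads were required per variant, and three batches were averaged.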

Variant | self-cleavage
U54C U67C U72C | 0.19
U54C U67C U72A | 0.16
G52A A56U C59A | 0.2
U51A A56U A57G U69C | 0.1
A57C U67A U80A | 0
A57G U58A U76C U78C | 0.18
U58C U69C A75U C81G | 0.23
U58A A65G U69C G73A | 0.16
U60A A64G U67C A75G | 0.3
G61C A77G U80C | 0.41
U66A U69C U80A | 0.26
U54C G55U U67C | 0.16
A65G U66G U69C | 0.13
U60A A65G U69C | 0.25
U49C U66C U80C | 0.54
G53A U72C U80A | 1.21
U67C U76C U78C | 0.18
A64U U69C U72C | 0.23
U60C A64G U72C | 0.23
U60A G61U U72C | 0.35
U54C A64G U69C | 0.34
G52A A56G U58C | 0.53
U60G U69A U72C U80A C81U | 0.32
A56G U67C U80C | 0.35

Variant | self-cleavage
U54C U60A G70A U80C | 0.26
U51G U58C A65G U80A | 0.23
A56G U58A U78C | 0.18
G52A U58C U74C | 1.14
U49G U58A U78C U80A | 0.08
U49C U66C U67C | 0.17
U54A U58C U74G | 1.19
U54A U58C U69C | 0.35
U60C U69C G70A | 0.42
U51C A56G U78C | 0.51
U54C A64G A65U U80A | 0.14
U66C U72C A75G | 0.38
U51A U69C C81A | 0.98
U51A A57G U78C | 0.52
A56G G63U U78C | 1.09
A56G A57G A64G | 0.3
U60A U67A U72C | 0.36
U58A A65G U72A | 0.39
G55C U60C U69C U80C | 0.29
U58A C59A A64U | 0.11
U72C U74C A75U | 1.26
U54A U58C U78C | 0.25
U54C C71G A75U C81U | 0.58
U60A A65G C68U | 0.31

Variant | self-cleavage
U58C U66A U67C C71U U72A | 0.16
U67C U74C U78C | 0.27
G73C U78C U80G | 1.32
U54G A64G U66C | 0.19
U54C U74C U78C | 1.13
U51A G55A A57C U58C U72A | 0.39
U60C C62U U78C | 0.13
U60A U66G U67C | 0.45
U54C U76A U78C | 1.08
U60A A65G U76A | 0.41
U51A G61A A65G | 0.33
U58A A64G U66C | 0.24
U51C U60C U80A | 0.4
U51A U54C U80A | 1.05
G53C U58A A65G | 0.13
G52A A65G U69C | 0.35
U51A G55U U58C A64G | 0.28
U58A U72A U78C | 0.17
U51C U69C U72C U80G | 0.55
U58A C71U A75U | 0.22
G53U A65G A77C | 0.61
C50U C68A U74A | 0.44
U69C U72C U80C | 0.34
A56G U58G A65G | 0.17

Variant | self-cleavage
G61A C62U A65G | 0.23
C62U U67C U72C A75G | 0.27
U58C U76A U80C | 0.85
U54C A64G U67C U72A | 0.33
C50A U69A U74C U78A | 0.45
G53A U72C A75G | 1.17
U54C A57G U80A | 0.86
U54A U58C A77U | 0.53
U54C U58C A64G | 0.15
U66C U69C A77G | 0.44
A57G U78A U80C | 0.75
A56G C71G U78A | 0.36
A56G A64U U72A | 0.3
U76C U78G U80C | 0.83
U54C U67C U78C | 0.17
U60A A65C U67C U72G U78C | 0.3
U51A U60C U80C | 0.58
U72A U76A U78C | 0.67
C62U A64U U78C | 0.22
U51A U60C A64G U69C | 0.52
U49C U60C U67A | 0.4
A56U A64G U72A | 0.34
U49C U58C U67C | 0.18
G53C U78C U80C | 0.89

Variant | self-cleavage
U54C U66C U67A U72C A75C U78C | 0.13
U54C U67C U80A | 0.11
U54A U60A C62U U76A | 0.31
A56G U72C U76A | 0.69
A57U U67G U72A | 0.18
A65G U72C U80A | 0.72
A57G U58C U72A | 0.34
A56G A64C U74C | 0.09
A56G A65G U72G | 0.54
U67C U72C A75G | 0.15
U58C U74C C81U | 1.11
U67C U69A U80C | 0.23
A57G U60A U78C | 0.35
U58A U69A U72C U76A | 0.18
U51C A56G U69C | 0.53
A56U A64U U67C | 0.1
A56G A57G U60A | 0.37
U49C U72A A77G | 0.17
G55A U60A G61U U76A | 0.18
U51A G55U A56U | 0.57
U58C U60C U66C U69C | 0.16
A56G A57U U78C | 0.29
A57G U69A U72C | 0.58
U54A A56U A57G A65U | 0.13

Variant | self-cleavage
A56G A64U U74A U80C | 0.44
U54C U67G U74C | 0.42
U60A U72A A77U | 0.81
U54A A75G U78C | 0.68
U54G A56U U78C | 0.33
C59A U72C U80C | 0.61
U60G A65G U67C U72A | 0.3
U51A U67C U69A U72A U74C | 0.5
U51C A57G U69A | 0.39
G55C U58C A65G C68A | 0.08
U58C U67C U74A U80C | 0.32
G55U U58A U69A | 0.17
A56G U60C A75U | 0.54
U54C U58C U60C A64U | 0.33
A64G U72A U80G | 1.01
U51C A64G U69C | 0.53
U51C U66A U80C | 0.48
U54C G63U U69G | 0.87
G53A U67C U80A | 0.28
A64G U66C U72C | 0.37
U51C U66C U80C | 0.56
A56G C62G U74C | 0.23
